# According to PubChem BioAssay AID485297 (National Center for Advancing Translational Sciences (NCATS), 2010):
# Out of some 320,000 compounds screened, about 9,100 (2.8%) were called active. Inconclusive results, whose numbers are uncertain, are shown with a selection of clear calls. Calls come from the whole dose curve; as a rule, active = well fitted activation curve with a large enough effect; inconclusive = small, poorly fitted or top-dose-only effect; inactive = no such curve, though single readings can be large or run the other way. Potencies of inconclusive entries are left out as doubtful fits.
# Experiment: qHTS Assay for Rab9 Promoter Activators; note: nearly all actives have a fitted effect of over 60% in size; for activation, negative = inhibition: % of control where 0% means no effect
# Settings: Huh7 Rab9 promoter-luciferase reporter, luminescence, 24 h; series mostly up to 9.22 µM; activation, negative = inhibition: at the top concentration
# How it was run: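 Rab9 promoter-driven luciferase in stably transfected Huh7 cells; 1500 cells/well rested 2 h, exposed to compound in DMSO for 24 h at 37 °C, 5% CO2. Luminescence read 10 min after adding luciferase reagent at ambient temperature.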
# Potency is the fitted concentration of half-maximal effect; tags give direction and shape of the fitted curve.
Compound,Potency,"activation, negative = inhibition"
O=c1cc(-c2ccccc2)oc2ccccc12,"inconclusive [activator, partial curve]",–
Nc1ccccc1C(=O)N1CCc2ccccc21,"inconclusive [activator, partial curve]",–
CCOCCCNC(=O)C(NC(=O)c1ccc2c(c1)OCO2)c1ccc(Cl)cc1 (stereo not drawn),"inconclusive [activator, single point]",–
CCOC(=O)c1cc(-c2ccccc2)nn1Cc1cc(CC)no1,"inconclusive [activator, single point]",–
COc1ccccc1C(=O)Nc1ccc(S(=O)(=O)N2CCCCC2c2cccnc2)cc1 (stereo not drawn),–,inactive: -4.68%
COc1ccc(OCc2cc(C(=O)NCc3nc(C)cs3)no2)c(Cl)c1,"inconclusive [activator, single point]",–
O=C(COC(=O)c1cc(S(=O)(=O)N2CCOCC2)ccc1Cl)Nc1ccccc1Cl,–,inactive: -2.92%
COCCCNC(=O)COc1ccc(Br)cc1Cl,"inconclusive [activator, partial curve]",–
CC(C)(C)Cc1nnc(NC(=O)c2ccco2)s1,"inconclusive [activator, single point]",–
O=C(CCc1ccc(Oc2cc([N+](=O)[O-])cc([N+](=O)[O-])c2)cc1)Nc1cccc(Cl)c1,"inconclusive [activator, single point]",–
Cc1nn(C)cc1CNC(=O)Nc1ccc(Cl)cc1,"inconclusive [activator, partial curve]",–
COc1ccc(NC(=O)Cc2ccsc2)cc1S(=O)(=O)N1CCCCC1,–,inactive: -3.08%
COC(=O)C1(CCSC)NC(c2ccc(OC)cc2OC)C2C(=O)N(c3cccc(C(C)=O)c3)C(=O)C21 (stereo not drawn),"inconclusive [activator, single point]",–
CC(=O)C(C)Oc1ccc2c3c(c(=O)oc2c1)CCCCC3 (stereo not drawn),active: 2.82 µM,–
O=C(CSc1nc2ccccc2s1)Nc1ccc2c(c1)oc1ccccc12,–,inactive: 23.6%
O=C(CN1C(=O)CCC1=O)c1ccc(-c2ccccc2)cc1,"inconclusive [activator, single point]",–
Cc1cc(-c2nnc(SCC(=O)Nc3c(C)cccc3C)n2N)n[nH]1,–,inactive: 0.424%
COc1nc(NC(=O)c2ccc(F)cc2)nc(OC)c1-c1ccccc1,–,inactive: -0.0516%
O=C(Nc1ccc(Cl)cc1)c1csc(Cc2ccccc2)n1,"inconclusive [activator, single point]",–
O=C(NCCCN1CCCC1=O)c1cc2c(s1)CCCCC2,"inconclusive [activator, partial curve]",–
Fc1cc(F)cc(NC(=S)N2CCC(c3ccccc3)C2)c1 (stereo not drawn),active: 3.55 µM,–
Nc1c(C(=O)Nc2ccc(F)cc2)sc(=S)n1-c1ccccc1F,"inconclusive [activator, single point]",–
CCc1nnc(NS(=O)(=O)c2ccc(NC(=O)c3ccccc3)cc2)s1,–,inactive: -2.52%
Cn1nc(C(F)(F)F)c(C#N)c1N1CCN(c2ccccc2)CC1,–,inactive: -4.64%
CCCN1C(=O)c2ccc(C(=O)Nc3ccc4c(c3)OCO4)cc2C1=O,"inconclusive [activator, partial curve]",–
CC(=O)c1c(C)[nH]c(C(=O)N2CCN(S(=O)(=O)c3ccc(C)cc3C)CC2)c1C,–,inactive: -7.1%

Compound,Potency,"activation, negative = inhibition"
O=C(Nc1nnc(-c2ccc3c(c2)CCCC3)o1)C1CCCCC1,"inconclusive [activator, single point]",–
CCOC(=O)C1=C(N)Oc2c(c(=O)[nH]c3ccccc23)C1c1ccccc1 (stereo not drawn),–,inactive: 1.27%
CCOc1ccc2cc(C(=O)c3ccccc3)c(=O)oc2c1,"inconclusive [activator, single point]",–
CCN=c1scc(-c2ccccc2)n1/N=C/c1ccccn1,active: 0.562 µM,–
Cc1oc(-c2cccc(C(F)(F)F)c2)nc1CN1CCOCC1,"inconclusive [activator, single point]",–
Cc1ccc(NC(=O)Nc2ccc3c(c2)CCC3)cc1,active: 2 µM,–
COc1ccc2c(c1)OC/C(=C/c1cccs1)C2=O,"inconclusive [activator, single point]",–
COC(=O)c1[nH]c2ccccc2c1NC(=O)Oc1ccccc1,"inconclusive [activator, partial curve]",–
C/C(=N\NC(=O)CNC(=O)C1COc2ccccc2O1)c1ccco1 (stereo not drawn),–,inactive: -1.79%
Cc1cccc(C(=O)OCC(=O)c2c(C)[nH]c3ccccc23)c1O,"inconclusive [activator, single point]",–
O=S(=O)(Nc1cc(C(F)(F)F)ccc1N1CCOCC1)c1ccc2ccccc2c1,–,inactive: -10.5%
COc1ccc(/C(N)=N/OC(=O)C2CCCCC2)cc1OC,"inconclusive [activator, partial curve]",–
Oc1cccc2ccc(/C=C/c3ccc(Br)s3)nc12,"inconclusive [activator, single point]",–
Cc1ccc(-c2cn(-c3ccc(OC(F)F)cc3)c3[n+]2CCCCC3)cc1,–,inactive: -27.1%
Cc1csc2nc(CSc3nc4ccccc4o3)cn12,"inconclusive [activator, partial curve]",–
COc1ccc(-c2cc3c(=O)n(CC(=O)NCc4ccccc4F)ncn3n2)cc1,"inconclusive [activator, full curve, poor fit]",–
Cc1ccc2nc(NCCc3ccccc3)c3nncn3c2c1,"inconclusive [activator, single point]",–
Cc1ccnc(SCC(=O)c2cccs2)n1,active: 3.16 µM,–
Cc1cnc(NC(=O)c2ccco2)s1,"inconclusive [activator, partial curve]",–
O=C(Nc1ccccc1C(=O)NCCc1ccccc1)c1cnccn1,"inconclusive [activator, single point]",–
CC(C)c1ccc(OCc2cccc(C(=O)N/N=C/c3cccnc3)c2)cc1,"inconclusive [activator, full curve, poor fit]",–
O=C(Nc1cccc(-c2ccc(N3CCOCC3)nn2)c1)c1ccc([N+](=O)[O-])cc1,active: 2.51 µM,–
COc1ccc2nc(SCc3ccccc3)nc(C)c2c1,active: 1.41 µM,–
O=C(/C=C/c1cccs1)Nc1ccc([N+](=O)[O-])cc1,"inconclusive [activator, single point]",–
CCN(CC)S(=O)(=O)c1cccc(C(=O)N[C@H](C(=O)NCc2ccc(Cl)cc2)C(C)C)c1,–,inactive: 2.66%
CC(C)(C)c1ccc(C(=O)OC/C(O)=C(\C#N)c2nc3ccccc3s2)cc1,–,inactive: -4.42%

Compound,Potency,"activation, negative = inhibition"
N#CCCn1cc(/C=N/O)c(-c2ccccc2)n1,"inconclusive [activator, partial curve]",–
CCN(CC)S(=O)(=O)c1cccc(-c2nc3n(n2)Cc2ccccc2-3)c1,"inconclusive [activator, partial curve]",–
O=c1n(Cc2ccccc2Cl)nc2n1-c1ccccc1SC2,active: 3.55 µM,–
O=C1/C(=C/c2ccco2)CCc2ccccc21,"inconclusive [activator, single point]",–
COc1ccccc1CCC(=O)Nc1ccc(C)cc1Cl,"inconclusive [activator, single point]",–
O=C(NCCc1ccc(F)cc1)c1ccncc1,–,inactive: 21.9%
COc1cccc(-c2nc3ccccc3s2)c1O,"inconclusive [activator, partial curve]",–
Cc1ccccc1NCC(=O)N/N=C/C(Br)=C/c1ccccc1,–,inactive: 0.658%
O=C(O)c1cccc(N=NN2CCOCC2)c1,"inconclusive [activator, partial curve]",–
COc1cccc(NC(=S)NN=C2CCCCCC2)c1,active: 3.16 µM,–
CCOC(=O)c1cc(C(=O)Nc2cccc(C)c2)nn1C,active: 1.41 µM,–
COc1ccc(-c2cn[nH]c2-c2ccc(OC)cc2O)cc1,–,inactive: -1.46%
CC1Cn2c(nc3sc4c(c3c2=O)CC(C)(C)OC4)N1CCO (stereo not drawn),–,inactive: -0.312%
O=C(Nc1nc2ccccc2s1)c1ccc([N+](=O)[O-])o1,"inconclusive [activator, partial curve]",–
Cc1ccc(OC(=O)c2sc3ncn(C)c(=O)c3c2C)cc1,active: 2.82 µM,–
O=C(COC(=O)c1ccccc1Cl)Nc1cccnc1Cl,–,inactive: -0.288%
CC(C)(C)OC(=O)N/N=C\c1ccc[nH]1,"inconclusive [activator, partial curve]",–
CN(C)S(=O)(=O)c1cccc(C(=O)N=C2N=C3C=CC(Cl)=CN3Cc3ccccc32)c1,active: 3.55 µM,–
O=C1NCCN/C1=C\C(=O)c1cccc(Br)c1,"inconclusive [activator, single point]",–
CC(C)(C)c1ccc(NC(=O)c2ccsc2)cc1,active: 0.398 µM,–
CC1(C)CC(NS(=O)(=O)c2cccc3ccccc23)CC(C)(C)N1,–,inactive: 1.21%
O=C1C=CC(=O)N1c1cccc(-c2ccccc2)c1,–,inactive: 0.102%
CCC(=O)n1nc(-c2ccc(OC)cc2)nc1NCc1cccs1,"inconclusive [activator, single point]",–
CCC(C)C(NS(=O)(=O)c1ccc(C)cc1)C(=O)N1CCOCCOCCOCC1 (stereo not drawn),–,inactive: -2.89%
O=C(NCCc1ccccc1)c1c[nH]c2c(F)cccc2c1=O,"inconclusive [activator, partial curve]",–
O=C1c2ccccc2NC(c2ccccn2)N1c1ccc(Cl)cc1 (stereo not drawn),"inconclusive [activator, partial curve]",–
